Where “and” joins values, the source holds several entries; their conditions need not be identical. Identical values can stand only once. The source gives many values for each of these; only a part stands here.
What was measured:
[1] = system: protein translation in rabbit reticulocyte lysate; experiment: Rescue of RM-A-inhibited in vitro translation by C-terminal truncated ScIleRS or its variants; settings: replicates I-III
[2] = system: protein translation in rabbit reticulocyte lysate; experiment: Rescue of RM-A-inhibited in vitro translation by C-terminal truncated human IleRS or its variants; settings: replicates I-III

CCCC[C@@]1(OC(=O)CCC(=O)O)CC[C@]2(CC[C@H](C)[C@@H](C/C=C(C)/C=C/[C@H](O)[C@@H](C)/C=C/C(=O)O)O2)O[C@H]1/C=C/C(C)=C/C(=O)O [RM-A, reveromycin A]
Luciferase luminescence, 200 nM RM-A ([1]; 1 μM C-terminal truncated ScIleRS Wild-type): 78179.8 and 76352.9 and 75473.4
Luciferase luminescence, 200 nM RM-A ([1]; 1 μM ScIleRS W449A): 71731.8 and 72721.8 and 84326
Luciferase luminescence, 200 nM RM-A ([1]; 3 μM LeuRS (control)): 154.893 and 36.04
Luciferase luminescence, 200 nM RM-A ([1]; No enzyme): 63.694 and 118.486 and 52.672
Luciferase luminescence, 200 nM RM-A ([2]; 1 μM C-terminal truncated human IleRS Wild-type): 83295.7 and 163450 and 116055
Luciferase luminescence, 200 nM RM-A ([2]; 1 μM human IleRS R453A): 1455.34 and 289.807 and 8585.61
Luciferase luminescence, 200 nM RM-A ([2]; 1 μM human IleRS R459A): 215.606 and 54.339 and 171.532
Luciferase luminescence, 200 nM RM-A ([2]; 1 μM human IleRS R461A): 22081.7 and 40970.4 and 33727.3
Luciferase luminescence, 200 nM RM-A ([2]; 1 μM human IleRS W455A): 44.02 and 35.857 and 26.326
Luciferase luminescence, 200 nM RM-A ([2]; 1 μM human IleRS W527A): 70.431 and 17.709 and 43.876
Luciferase luminescence, 200 nM RM-A ([2]; 1 μM human IleRS Y569A): 5696.14 and 3316.79 and 2966.03
Luciferase luminescence, 200 nM RM-A ([2]; 3 μM C-terminal truncated human IleRS Wild-type): 201224 and 199022 and 204709
Luciferase luminescence, 200 nM RM-A ([2]; 3 μM human IleRS R453A): 123651 and 133594 and 140568
Luciferase luminescence, 200 nM RM-A ([2]; 3 μM human IleRS R459A): 1971 and 1393.87 and 1621.8
Luciferase luminescence, 200 nM RM-A ([2]; 3 μM human IleRS R461A): 177488 and 173104 and 175565
Luciferase luminescence, 200 nM RM-A ([2]; 3 μM human IleRS W455A): 26.49 and 178.701 and 79.582
Luciferase luminescence, 200 nM RM-A ([2]; 3 μM human IleRS W527A): 17.66 and 70.739 and 44.212
Luciferase luminescence, 200 nM RM-A ([2]; 3 μM human IleRS Y569A): 38499 and 38117 and 26032.1
Luciferase luminescence, 200 nM RM-A ([2]; No enzyme): 62.885 and 54.339 and 63.196
